In a collection of fitness landscapes (doi:10.1016/j.celrep.2020.107928):
The full ranking holds about 81,000 sequences; the median of “one-hybrid fitness for binding NBS DNA” is about -0.1, and the highest 2% start at about 0.36. Some of the results follow.

B1: Caulobacter ParB omega fusion; a variant is named by its letters at X, in order, B8GW30 (parent)
chain: MESVVVGEPGMSEGRRGLGRGLSALLGEVDAAPAQAPGEQLGGSREAPIEILQRNPDQPRRTFREEDLEDLSNSIREKGVLQPILVRPSPDTAGEYQIVAGERAWRAAQRAGLKTVPIMVRELDDLAVLEIGIIENVQRADLNVLEEALSYKVLMEKFERTQENIAQTIGKSXSHVANXMRLLXLPDEVQSYLVSGELTAXHARAIAAAADPVALAKQIIEGGLSVRETEALARKAPNLSAGKSKGGRPPRVKDTDTQALESDLSSVLGLDVSIDHRGSTGTLTITYATLEQLDDLCNRLTRGI

Variants of: B1
Assay: one-hybrid fitness for binding NBS DNA (the Noc-binding site; scaled: cognate 1, non-cognate 0); higher = stronger binding
Conditions: with NBS DNA site
Procedure, shortened: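 On M9-minus-histidine containing 0.1 mM IPTG and 5 mM 3-AT, E. coli USO cells with a HIS3 reporter, site 19 bp from the promoter, grew 48 hours at 37°C to select Caulobacter ParB libraries randomised at four specificity codons. Plasmids from before and after were Illumina-sequenced, with three replicate libraries pooled and variants under 10 reads left out. Fitness is the log change in variant-to-wild-type read ratio, rescaled against cognate and non-cognate.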

Variant | one-hybrid fitness for binding NBS DNA
TDWL | ≤ 0.2
KMDR | ≤ 0.2
DWIS | ≤ 0.2
SFGR | ≤ 0.2
NIGR | ≤ 0.2
VASA | ≤ 0.2
EFMR | ≤ 0.2
REDM | ≤ 0.2
EPLL | ≤ 0.2
KQGN | ≤ 0.2
ARIQ | ≤ 0.2
PLMA | ≤ 0.2
TRRD | ≤ 0.2
TLKQ | ≤ 0.2
YQLF | ≤ 0.2
DPRL | ≤ 0.2
VYKG | ≤ 0.2
SVGE | ≤ 0.2
CYYV | ≤ 0.2
WEKR | ≤ 0.2
PVAC | ≤ 0.2
FTGG | ≤ 0.2
SMQP | ≤ 0.2
QVDC | ≤ 0.2

Variant | one-hybrid fitness for binding NBS DNA
WSLY | ≤ 0.2
WLIG | ≤ 0.2
TLSC | ≤ 0.2
RLGH | ≤ 0.2
APVN | ≤ 0.2
TLTA | ≤ 0.2
AMHS | ≤ 0.2
GSGG | ≤ 0.2
HSVV | ≤ 0.2
SRSG | ≤ 0.2
DWSV | ≤ 0.2
EQMG | ≤ 0.2
YFAG | ≤ 0.2
YVEF | ≤ 0.2
HLGT | ≤ 0.2
PCVS | ≤ 0.2
RVSV | ≤ 0.2
RMFM | ≤ 0.2
RNCY | ≤ 0.2
RVVV | ≤ 0.2
PKSW | ≤ 0.2
FLFS | ≤ 0.2
QSDG | ≤ 0.2
TNLT | ≤ 0.2

Variant | one-hybrid fitness for binding NBS DNA
IHSG | ≤ 0.2
NPRI | ≤ 0.2
FDTY | ≤ 0.2
RKMD | ≤ 0.2
FDTR | ≤ 0.2
DWSR | ≤ 0.2
SNPG | ≤ 0.2
RKHH | 0.245
NHIR | ≤ 0.2
RMKY | 0.311
AEDY | ≤ 0.2
HLWA | ≤ 0.2
TCKV | ≤ 0.2
WDAD | ≤ 0.2
REAF | ≤ 0.2
YDHR | ≤ 0.2
DREI | ≤ 0.2
TPVL | ≤ 0.2
NLTS | ≤ 0.2
RLYE | ≤ 0.2
AVTL | ≤ 0.2
TRFV | ≤ 0.2
SDMP | ≤ 0.2
FYDS | ≤ 0.2

Variant | one-hybrid fitness for binding NBS DNA
PAYM | ≤ 0.2
GEMG | ≤ 0.2
TYCH | ≤ 0.2
VPPS | ≤ 0.2
LYTL | ≤ 0.2
LRGK | ≤ 0.2
QWSG | ≤ 0.2
IGKR | ≤ 0.2
ERRR | 0.265
EGHR | ≤ 0.2
ECHR | ≤ 0.2
WHPC | ≤ 0.2
RHHV | ≤ 0.2
IQAC | ≤ 0.2
TTHI | ≤ 0.2
PRFY | ≤ 0.2
HCLR | ≤ 0.2
PHLI | ≤ 0.2
PPYL | ≤ 0.2
AKPK | ≤ 0.2
LKWT | ≤ 0.2
SNVT | ≤ 0.2
ATSF | ≤ 0.2
RPHD | ≤ 0.2

Variant | one-hybrid fitness for binding NBS DNA
NHML | ≤ 0.2
QQPG | ≤ 0.2
CMGF | ≤ 0.2
NAKM | ≤ 0.2
IRDA | ≤ 0.2
ICTR | ≤ 0.2
NQLV | ≤ 0.2
HMES | ≤ 0.2
VMQR | ≤ 0.2
TWFC | ≤ 0.2
NVQI | ≤ 0.2
GHAC | ≤ 0.2
SEEY | ≤ 0.2
CKTP | ≤ 0.2
NHAD | ≤ 0.2
CMGG | ≤ 0.2
PPNG | ≤ 0.2
GTHS | ≤ 0.2
TSHK | ≤ 0.2
EIFV | ≤ 0.2
HAMS | ≤ 0.2
GVRQ | ≤ 0.2
SRHL | ≤ 0.2
LHMR | ≤ 0.2

Variant | one-hybrid fitness for binding NBS DNA
SSTE | ≤ 0.2
MGMM | ≤ 0.2
INQS | ≤ 0.2
PYAV | ≤ 0.2
CPSC | ≤ 0.2
PLYN | ≤ 0.2
PCLK | ≤ 0.2
VMRL | ≤ 0.2
TGNG | ≤ 0.2
HSWA | ≤ 0.2
MWTR | ≤ 0.2
TKSI | ≤ 0.2
CWQN | ≤ 0.2
CRTG | ≤ 0.2
WSCL | ≤ 0.2
YWLR | ≤ 0.2
APNR | ≤ 0.2
GPSL | ≤ 0.2
CYIR | ≤ 0.2
GNLD | ≤ 0.2
EGKG | ≤ 0.2
ATPT | ≤ 0.2
VRGH | ≤ 0.2
KFGW | ≤ 0.2

Variant | one-hybrid fitness for binding NBS DNA
DGTL | ≤ 0.2
SQVR | ≤ 0.2
SYTD | ≤ 0.2
ADLG | ≤ 0.2
LWAG | ≤ 0.2
ASCS | ≤ 0.2
STCM | ≤ 0.2
VPAM | ≤ 0.2
ADVC | ≤ 0.2
HLKS | ≤ 0.2
VDSA | ≤ 0.2
HMPW | ≤ 0.2
WISR | ≤ 0.2
VTYT | ≤ 0.2
AMPP | ≤ 0.2
MSHV | ≤ 0.2
EVLY | ≤ 0.2
AAVV | ≤ 0.2
LFPI | ≤ 0.2
YERG | ≤ 0.2
AWCL | ≤ 0.2
QKAG | ≤ 0.2
RMGH | ≤ 0.2
YWCL | ≤ 0.2

Variant | one-hybrid fitness for binding NBS DNA
RLLW | ≤ 0.2
PSIS | ≤ 0.2
NNGF | ≤ 0.2
DPTN | ≤ 0.2
GKCT | ≤ 0.2
KGWD | ≤ 0.2
QWGS | ≤ 0.2
SPIV | ≤ 0.2
GHYY | ≤ 0.2
FGFG | ≤ 0.2
TNVP | ≤ 0.2
ANRV | ≤ 0.2
RMSS | 0.439
GPIL | ≤ 0.2
QWRP | ≤ 0.2
KEDV | ≤ 0.2
TRAR | 0.354
QYCY | ≤ 0.2
WLMM | ≤ 0.2
RICS | 0.292
AKGT | ≤ 0.2
HRIA | ≤ 0.2
YSVL | ≤ 0.2
TFCC | ≤ 0.2

Variant | one-hybrid fitness for binding NBS DNA
QTRM | 0.562
PPSE | ≤ 0.2
YITS | ≤ 0.2
CLRA | ≤ 0.2
NLCR | ≤ 0.2
QEKK | ≤ 0.2
DYLL | ≤ 0.2
LRKE | ≤ 0.2
TSYY | ≤ 0.2
GVER | ≤ 0.2
KGRF | ≤ 0.2
AWHS | ≤ 0.2
SRHN | ≤ 0.2
QRIP | ≤ 0.2
SFQA | ≤ 0.2
SSTI | ≤ 0.2
MSTY | ≤ 0.2
PRRH | ≤ 0.2
TENR | ≤ 0.2
RQTP | ≤ 0.2
YMRM | ≤ 0.2
GTES | ≤ 0.2
RVTP | ≤ 0.2
SYAL | ≤ 0.2

Variant | one-hybrid fitness for binding NBS DNA
NILV | ≤ 0.2
FKPP | ≤ 0.2
RECK | ≤ 0.2
GISW | ≤ 0.2
RHAE | ≤ 0.2
RGAR | ≤ 0.2
RVMV | ≤ 0.2
HIFW | ≤ 0.2
STML | ≤ 0.2
VAFI | ≤ 0.2
RFLV | ≤ 0.2
RAFM | ≤ 0.2
QMAP | ≤ 0.2
SQSY | ≤ 0.2
YHVC | ≤ 0.2
SVFW | ≤ 0.2
LRKL | ≤ 0.2
CRLD | ≤ 0.2
KPLM | ≤ 0.2
YGGS | ≤ 0.2
CPEV | ≤ 0.2
NVMT | ≤ 0.2
QCYT | 0.503
RKFF | ≤ 0.2

Variant | one-hybrid fitness for binding NBS DNA
NDHR | ≤ 0.2
PPED | ≤ 0.2
FISY | ≤ 0.2
YTSV | ≤ 0.2
QRHE | 0.32
YMKG | ≤ 0.2
RSEF | ≤ 0.2
SYKG | ≤ 0.2
PPHN | ≤ 0.2
MQVV | ≤ 0.2
SHWD | ≤ 0.2
LMYG | ≤ 0.2
TPAP | ≤ 0.2
YNKC | ≤ 0.2
QYWY | ≤ 0.2
YRAF | ≤ 0.2
LSMC | ≤ 0.2
PGPF | ≤ 0.2
MGFG | ≤ 0.2
AHCC | ≤ 0.2
AAFG | ≤ 0.2
LRMM | ≤ 0.2
YLNR | ≤ 0.2
GLLA | ≤ 0.2

Variant | one-hybrid fitness for binding NBS DNA
VGRR | ≤ 0.2
TPKK | ≤ 0.2
QAVF | ≤ 0.2
HPAT | ≤ 0.2
LQKR | 0.226
CGAD | ≤ 0.2
VFCG | ≤ 0.2
QDLS | ≤ 0.2
GEQT | ≤ 0.2
DTNT | ≤ 0.2
ENKQ | ≤ 0.2
RAKF | ≤ 0.2
GCPD | ≤ 0.2
IVPF | ≤ 0.2
NKQS | ≤ 0.2
APNS | ≤ 0.2
LLQD | ≤ 0.2
QGIM | ≤ 0.2
GWDK | ≤ 0.2
KISV | ≤ 0.2
MSSE | ≤ 0.2
MDFC | ≤ 0.2
QHHT | 0.419
HRTS | ≤ 0.2

Variant | one-hybrid fitness for binding NBS DNA
FKSY | ≤ 0.2
YVSR | ≤ 0.2
RRLI | ≤ 0.2
HPLG | ≤ 0.2
RPSW | ≤ 0.2
IAHT | ≤ 0.2
AICS | ≤ 0.2
GMMW | ≤ 0.2
KLEL | ≤ 0.2
MIPV | ≤ 0.2
RLCW | ≤ 0.2
GNES | ≤ 0.2
VDKV | ≤ 0.2
PFGC | ≤ 0.2
FMKW | ≤ 0.2
TSST | 0.204
AKLC | ≤ 0.2
ANAW | ≤ 0.2
